The values below come from the supplement of paper PMC4466236.

Over roughly 33,000 sequences, “E-score (dimensionless, -0.5 to 0.5)” has its median near -0.058; the highest 2% begin near 0.35. The list shows a part of the results.

For this assay, the system named is MvaT. The assay can be described thus: PBM 8-mer E-score (mean of HK and ME arrays) (E-score (dimensionless, -0.5 to 0.5)); higher = stronger relative binding preference; most listed sequences are background and not binding sites. The method in brief:
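Full-length P. aeruginosa MvaT, with glutathione S-transferase fused to its N-terminus (cloned into pTH6838 by isothermal assembly), was tested by protein binding microarray using a previously described protocol. Two universal double-stranded 60-mer arrays (ME and HK) were used, each with a constant 25-mer primer region and a variable 35-mer region covering all 8-mers. The rank-based 8-mer E-score (-0.5 to 0.5) is the mean of the two arrays, parsed with a custom Python script.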
Regarding CAGGCTTA, the “PBM 8-mer E-score” value was -0.142.

In the case of CCGCTCTA, the “PBM 8-mer E-score” value was -0.0877.

For the sequence AGGAGGAC, the “PBM 8-mer E-score” value is -0.396.

In the case of CATAGTTC, the “PBM 8-mer E-score” value was found to be 0.0955.

On to CGAACACC, for which the “PBM 8-mer E-score” value is -0.0813.

On to CAATGGGG, for which the “PBM 8-mer E-score” value is -0.0783.

In the case of CTGGGGGA, the “PBM 8-mer E-score” value is -0.235.

ATATAATC: the “PBM 8-mer E-score” value was 0.415.

AACCACGG: the “PBM 8-mer E-score” value is -0.089.

As to GCATGGCC, the “PBM 8-mer E-score” value is -0.339.

In the case of GCCTTCCC, the “PBM 8-mer E-score” value is -0.295.

In the case of TCGTACGA, the “PBM 8-mer E-score” value is -0.073.

As to CGGCATTA, the “PBM 8-mer E-score” value came out at 0.122.

For ATTGGGCC, the “PBM 8-mer E-score” value is -0.222.

Regarding CCCAGCGG, the “PBM 8-mer E-score” value is -0.35.

ACAGTCCG: the “PBM 8-mer E-score” value was -0.108.

Take ACCCTATG: the “PBM 8-mer E-score” value is -0.0632.

For the sequence CGTATTAA, the “PBM 8-mer E-score” value was found to be 0.35.

For GCGGGGCC, the “PBM 8-mer E-score” value was -0.322.

For the sequence CAGCCCAC, the “PBM 8-mer E-score” value is -0.188.

Turning to ACTCTCGA, the “PBM 8-mer E-score” value was -0.0374.

In the case of AGCTAGGG, the “PBM 8-mer E-score” value was -0.32.

Consider CTTCTTAC, for which the “PBM 8-mer E-score” value was 0.13.

As to AAAGCTGT, the “PBM 8-mer E-score” value is 0.0499.

With GCCAATAA, the “PBM 8-mer E-score” value came to 0.299.

As for ACTAAGTC, the “PBM 8-mer E-score” value was 0.0745.

TATAAAGA: the “PBM 8-mer E-score” value worked out at 0.327.

For CCCGGCCC, the “PBM 8-mer E-score” value was -0.325.

ACTATCGC: the “PBM 8-mer E-score” value is -0.0202.

In the case of AACCTACC, the “PBM 8-mer E-score” value was -0.156.

For AACCATCC, the “PBM 8-mer E-score” value is -0.129.

Take AATGAACG: the “PBM 8-mer E-score” value was -0.0946.

Turning to AATACGAG, the “PBM 8-mer E-score” value amounted to 0.13.

For the sequence AACAAAAT, the “PBM 8-mer E-score” value was 0.35.

For the sequence CAGGCTCC, the “PBM 8-mer E-score” value is -0.16.

Consider ACGGAAGA, for which the “PBM 8-mer E-score” value is -0.136.

For ATACACCG, the “PBM 8-mer E-score” value worked out at 0.0127.

For ATATTATA, the “PBM 8-mer E-score” value turned out to be 0.477.

In the case of ATTTAGAA, the “PBM 8-mer E-score” value was determined as 0.321.

With CCGTACCG, the “PBM 8-mer E-score” value was -0.26.

For CGGCCTGA, the “PBM 8-mer E-score” value is -0.228.

Turning to AAGCGGCC, the “PBM 8-mer E-score” value was -0.192.

For the sequence CTAGACCA, the “PBM 8-mer E-score” value was -0.219.

On to CTGGTCAA, for which the “PBM 8-mer E-score” value is -0.151.

On to CACGAGCG, for which the “PBM 8-mer E-score” value is -0.271.

GGACCCAC: the “PBM 8-mer E-score” value is -0.163.

As for CAGTGTAA, the “PBM 8-mer E-score” value turned out to be 0.136.

With GGCACAAA, the “PBM 8-mer E-score” value was -0.0263.

On to GACAAAGA, for which the “PBM 8-mer E-score” value was determined as 0.0678.

As for CTACGACC, the “PBM 8-mer E-score” value is -0.278.

Take AGCTCCGG: the “PBM 8-mer E-score” value is -0.267.

Turning to CACTCCTC, the “PBM 8-mer E-score” value is -0.138.

On to GAGGATGA, for which the “PBM 8-mer E-score” value was -0.209.

Take AGACCATC: the “PBM 8-mer E-score” value was -0.15.

Regarding CAGGTCTA, the “PBM 8-mer E-score” value is -0.0964.

AACCATTA: the “PBM 8-mer E-score” value was 0.184.

Take AGGAGCTC: the “PBM 8-mer E-score” value is -0.204.

With CCGGTCTA, the “PBM 8-mer E-score” value was -0.152.

As to AACGGAAA, the “PBM 8-mer E-score” value came out at 0.0899.

Regarding CAGGCCCG, the “PBM 8-mer E-score” value was -0.31.

As for CACTCACG, the “PBM 8-mer E-score” value was -0.138.

For the sequence ACATACTG, the “PBM 8-mer E-score” value was found to be 0.122.

For the sequence ATAATACG, the “PBM 8-mer E-score” value is 0.354.

For the sequence CGGTGCTC, the “PBM 8-mer E-score” value was -0.288.

With GTCCAGCA, the “PBM 8-mer E-score” value was -0.19.

In the case of AGTCTCGA, the “PBM 8-mer E-score” value is 0.0471.

Take CTTCTCCC: the “PBM 8-mer E-score” value is -0.188.

In the case of AGAAATCG, the “PBM 8-mer E-score” value was -0.0832.

With GACTCATA, the “PBM 8-mer E-score” value was -0.0591.

For CGGCGCTC, the “PBM 8-mer E-score” value was -0.294.

TCGCGTAA: the “PBM 8-mer E-score” value amounted to 0.139.

Turning to CTGATACC, the “PBM 8-mer E-score” value was -0.125.

On to CTAATGAA, for which the “PBM 8-mer E-score” value worked out at 0.132.

As to AAAGATAG, the “PBM 8-mer E-score” value stood at 0.2.

Regarding AACGCATC, the “PBM 8-mer E-score” value is -0.0129.

As to AAGTCTCA, the “PBM 8-mer E-score” value is 0.0489.

In the case of ACTAACAC, the “PBM 8-mer E-score” value amounted to 0.148.

Consider AGTTAAGC, for which the “PBM 8-mer E-score” value was found to be 0.0938.

For CGCGAAAA, the “PBM 8-mer E-score” value was 0.213.

With CTTGGAGA, the “PBM 8-mer E-score” value was -0.135.

As for CCTAATCG, the “PBM 8-mer E-score” value is -0.144.

Consider CTTTTGAA, for which the “PBM 8-mer E-score” value stood at 0.129.

CAGAGTCA: the “PBM 8-mer E-score” value is -0.133.

In the case of TATTCCCA, the “PBM 8-mer E-score” value worked out at 0.295.

On to AGATGGTC, for which the “PBM 8-mer E-score” value stood at 0.000856.

As to TATAGGGA, the “PBM 8-mer E-score” value came out at 0.0895.
